Experimental data as given in article PMC12820563.
Some of the results follow. The list includes weakly bound sequences.

Each sequence was assayed against T1, MBP-FoxP3dN (UniProt Q99JB6) (assay: PD-seq (MBP pull-down with sequencing)). Conditions: 20 mM Tris-HCl pH 7.5, 100 mM NaCl, 1.5 mM MgCl2, 0.4 uM protein, 0.1 uM dsDNA library, 30 min, room temperature, amylose pull-down; high values mean tight binding; double strand, one strand shown.
T1 sequence: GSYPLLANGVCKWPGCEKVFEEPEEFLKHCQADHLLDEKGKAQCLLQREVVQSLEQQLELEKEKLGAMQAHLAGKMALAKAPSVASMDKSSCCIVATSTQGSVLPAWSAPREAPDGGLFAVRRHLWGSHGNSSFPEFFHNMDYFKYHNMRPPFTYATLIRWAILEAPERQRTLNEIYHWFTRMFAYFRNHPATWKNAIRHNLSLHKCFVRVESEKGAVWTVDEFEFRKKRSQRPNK

Row | Sequence | binding signal (RPM ratio (pull-down/input))
1 | GATGATTGTTCTCCCAGCTGATGAATTTAGTCACTCGAGTAAACAAATTTTCCTAATCTTTCTGTTCAAGCGCCATCTAC | 1.04
2 | GATGATTGTTCTCCCAGCTGATGAATTTGAGTACTCGAGTAAACAAATTTTCCTAATCTTTCTGTTCAAGCGCCATCTAC | 1.82
3 | GATGATTGTTCTCCCAGCTGATGAATTAGGGGCGTCGAGTAAACAAATTTTCCTAATCTTTCTGTTCAAGCGCCATCTAC | 0.63
4 | GATGATTGTTCTCCCAGCTGATGAATTGTTCAAATCGAGTAAACAAATTTTCCTAATCTTTCTGTTCAAGCGCCATCTAC | 0.399
5 | GATGATTGTTCTCCCAGCTGATGAATTTCCGGGTTCGAGTAAACAAATTTTCCTAATCTTTCTGTTCAAGCGCCATCTAC | 0.307
6 | GATGATTGTTCTCCCAGCTGATGAATTTACCCCGTCGAGTAAACAAATTTTCCTAATCTTTCTGTTCAAGCGCCATCTAC | 0.311
7 | GATGATTGTTCTCCCAGCTGATGAATTAATTCAATCGAGTAAACAAATTTTCCTAATCTTTCTGTTCAAGCGCCATCTAC | 0.291
8 | GATGATTGTTCTCCCAGCTGATGAATTGGACTCATCGAGTAAACAAATTTTCCTAATCTTTCTGTTCAAGCGCCATCTAC | 0.407
9 | GATGATTGTTCTCCCAGCTGATGAATTGGAACCATCGAGTAAACAAATTTTCCTAATCTTTCTGTTCAAGCGCCATCTAC | 0.308
10 | GATGATTGTTCTCCCAGCTGATGAATTCATGGGTTCGAGTAAACAAATTTTCCTAATCTTTCTGTTCAAGCGCCATCTAC | 0.538
11 | GATGATTGTTCTCCCAGCTGATGAATTTCGTGGTTCGAGTAAACAAATTTTCCTAATCTTTCTGTTCAAGCGCCATCTAC | 0.898
12 | GATGATTGTTCTCCCAGCTGATGAATTCACTATCTCGAGTAAACAAATTTTCCTAATCTTTCTGTTCAAGCGCCATCTAC | 0.405
13 | GATGATTGTTCTCCCAGCTGATGAATTAGGACATTCGAGTAAACAAATTTTCCTAATCTTTCTGTTCAAGCGCCATCTAC | 0.784
14 | GATGATTGTTCTCCCAGCTGATGAATTATGATCGTCGAGTAAACAAATTTTCCTAATCTTTCTGTTCAAGCGCCATCTAC | 0.599
15 | GATGATTGTTCTCCCAGCTGATGAATTAGGAAAGTCGAGTAAACAAATTTTCCTAATCTTTCTGTTCAAGCGCCATCTAC | 0.198
16 | GATGATTGTTCTCCCAGCTGATGAATTTTGATGATCGAGTAAACAAATTTTCCTAATCTTTCTGTTCAAGCGCCATCTAC | 2.11
17 | GATGATTGTTCTCCCAGCTGATGAATTTTAGGACTCGAGTAAACAAATTTTCCTAATCTTTCTGTTCAAGCGCCATCTAC | 0.275
18 | GATGATTGTTCTCCCAGCTGATGAATTTCACGGCTCGAGTAAACAAATTTTCCTAATCTTTCTGTTCAAGCGCCATCTAC | 0.24
19 | GATGATTGTTCTCCCAGCTGATGAATTTGAACGCTCGAGTAAACAAATTTTCCTAATCTTTCTGTTCAAGCGCCATCTAC | 0.331
20 | GATGATTGTTCTCCCAGCTGATGAATTGAGTCCTTCGAGTAAACAAATTTTCCTAATCTTTCTGTTCAAGCGCCATCTAC | 0.401
21 | GATGATTGTTCTCCCAGCTGATGAATTGTAATAATCGAGTAAACAAATTTTCCTAATCTTTCTGTTCAAGCGCCATCTAC | 0.687

Row | Sequence | binding signal (RPM ratio (pull-down/input))
22 | GATGATTGTTCTCCCAGCTGATGAATTGGGGCGGTCGAGTAAACAAATTTTCCTAATCTTTCTGTTCAAGCGCCATCTAC | 0.309
23 | GATGATTGTTCTCCCAGCTGATGAATTGGCGGAGTCGAGTAAACAAATTTTCCTAATCTTTCTGTTCAAGCGCCATCTAC | 0.247
24 | GATGATTGTTCTCCCAGCTGATGAATTCACCACATCGAGTAAACAAATTTTCCTAATCTTTCTGTTCAAGCGCCATCTAC | 0.517
25 | GATGATTGTTCTCCCAGCTGATGAATTAGTAGTATCGAGTAAACAAATTTTCCTAATCTTTCTGTTCAAGCGCCATCTAC | 2.45
26 | GATGATTGTTCTCCCAGCTGATGAATTTACGGGCTCGAGTAAACAAATTTTCCTAATCTTTCTGTTCAAGCGCCATCTAC | 0.348
27 | GATGATTGTTCTCCCAGCTGATGAATTCACCGCGTCGAGTAAACAAATTTTCCTAATCTTTCTGTTCAAGCGCCATCTAC | 0.429
28 | GATGATTGTTCTCCCAGCTGATGAATTACACCCGTCGAGTAAACAAATTTTCCTAATCTTTCTGTTCAAGCGCCATCTAC | 0.381
29 | GATGATTGTTCTCCCAGCTGATGAATTGTCAGCGTCGAGTAAACAAATTTTCCTAATCTTTCTGTTCAAGCGCCATCTAC | 0.497
30 | GATGATTGTTCTCCCAGCTGATGAATTTGAAGACTCGAGTAAACAAATTTTCCTAATCTTTCTGTTCAAGCGCCATCTAC | 0.276
31 | GATGATTGTTCTCCCAGCTGATGAATTGCCCACGTCGAGTAAACAAATTTTCCTAATCTTTCTGTTCAAGCGCCATCTAC | 0.467
32 | GATGATTGTTCTCCCAGCTGATGAATTACTAAATTCGAGTAAACAAATTTTCCTAATCTTTCTGTTCAAGCGCCATCTAC | 0.312
33 | GATGATTGTTCTCCCAGCTGATGAATTCCCGCCATCGAGTAAACAAATTTTCCTAATCTTTCTGTTCAAGCGCCATCTAC | 2.09
34 | GATGATTGTTCTCCCAGCTGATGAATTTTATCCTTCGAGTAAACAAATTTTCCTAATCTTTCTGTTCAAGCGCCATCTAC | 0.446
35 | GATGATTGTTCTCCCAGCTGATGAATTTCGCGAATCGAGTAAACAAATTTTCCTAATCTTTCTGTTCAAGCGCCATCTAC | 0.23
36 | GATGATTGTTCTCCCAGCTGATGAATTATGTTTCTCGAGTAAACAAATTTTCCTAATCTTTCTGTTCAAGCGCCATCTAC | 4.18
37 | GATGATTGTTCTCCCAGCTGATGAATTCTGTTTATCGAGTAAACAAATTTTCCTAATCTTTCTGTTCAAGCGCCATCTAC | 7.92
38 | GATGATTGTTCTCCCAGCTGATGAATTATATTCGTCGAGTAAACAAATTTTCCTAATCTTTCTGTTCAAGCGCCATCTAC | 0.578
39 | GATGATTGTTCTCCCAGCTGATGAATTCTCGGCCTCGAGTAAACAAATTTTCCTAATCTTTCTGTTCAAGCGCCATCTAC | 0.255
40 | GATGATTGTTCTCCCAGCTGATGAATTACGAACTTCGAGTAAACAAATTTTCCTAATCTTTCTGTTCAAGCGCCATCTAC | 0.335
41 | GATGATTGTTCTCCCAGCTGATGAATTTGAAAGGTCGAGTAAACAAATTTTCCTAATCTTTCTGTTCAAGCGCCATCTAC | 0.194
42 | GATGATTGTTCTCCCAGCTGATGAATTTCACCCTTCGAGTAAACAAATTTTCCTAATCTTTCTGTTCAAGCGCCATCTAC | 0.275

Row | Sequence | binding signal (RPM ratio (pull-down/input))
43 | GATGATTGTTCTCCCAGCTGATGAATTTGCCTCTTCGAGTAAACAAATTTTCCTAATCTTTCTGTTCAAGCGCCATCTAC | 2.52
44 | GATGATTGTTCTCCCAGCTGATGAATTGGTCCAGTCGAGTAAACAAATTTTCCTAATCTTTCTGTTCAAGCGCCATCTAC | 0.229
45 | GATGATTGTTCTCCCAGCTGATGAATTATCGCGCTCGAGTAAACAAATTTTCCTAATCTTTCTGTTCAAGCGCCATCTAC | 0.537
46 | GATGATTGTTCTCCCAGCTGATGAATTAGTACTTTCGAGTAAACAAATTTTCCTAATCTTTCTGTTCAAGCGCCATCTAC | 0.674
47 | GATGATTGTTCTCCCAGCTGATGAATTCCTGAACTCGAGTAAACAAATTTTCCTAATCTTTCTGTTCAAGCGCCATCTAC | 0.217
48 | GATGATTGTTCTCCCAGCTGATGAATTTGAGGAATCGAGTAAACAAATTTTCCTAATCTTTCTGTTCAAGCGCCATCTAC | 0.241
49 | GATGATTGTTCTCCCAGCTGATGAATTGTATCTGTCGAGTAAACAAATTTTCCTAATCTTTCTGTTCAAGCGCCATCTAC | 1.2
50 | GATGATTGTTCTCCCAGCTGATGAATTCGCTCACTCGAGTAAACAAATTTTCCTAATCTTTCTGTTCAAGCGCCATCTAC | 0.368
51 | GATGATTGTTCTCCCAGCTGATGAATTTTCGGGATCGAGTAAACAAATTTTCCTAATCTTTCTGTTCAAGCGCCATCTAC | 0.23
52 | GATGATTGTTCTCCCAGCTGATGAATTCGTCTGATCGAGTAAACAAATTTTCCTAATCTTTCTGTTCAAGCGCCATCTAC | 0.299
53 | GATGATTGTTCTCCCAGCTGATGAATTGTCGAACTCGAGTAAACAAATTTTCCTAATCTTTCTGTTCAAGCGCCATCTAC | 0.315
54 | GATGATTGTTCTCCCAGCTGATGAATTAACGGCGTCGAGTAAACAAATTTTCCTAATCTTTCTGTTCAAGCGCCATCTAC | 0.466
55 | GATGATTGTTCTCCCAGCTGATGAATTCAGAGAATCGAGTAAACAAATTTTCCTAATCTTTCTGTTCAAGCGCCATCTAC | 0.179
56 | GATGATTGTTCTCCCAGCTGATGAATTATGAGCATCGAGTAAACAAATTTTCCTAATCTTTCTGTTCAAGCGCCATCTAC | 1.02
57 | GATGATTGTTCTCCCAGCTGATGAATTACCAGTCTCGAGTAAACAAATTTTCCTAATCTTTCTGTTCAAGCGCCATCTAC | 0.362
58 | GATGATTGTTCTCCCAGCTGATGAATTCAATAAATCGAGTAAACAAATTTTCCTAATCTTTCTGTTCAAGCGCCATCTAC | 0.229
59 | GATGATTGTTCTCCCAGCTGATGAATTATCCAAGTCGAGTAAACAAATTTTCCTAATCTTTCTGTTCAAGCGCCATCTAC | 0.191
60 | GATGATTGTTCTCCCAGCTGATGAATTCGCACAGTCGAGTAAACAAATTTTCCTAATCTTTCTGTTCAAGCGCCATCTAC | 0.324
61 | GATGATTGTTCTCCCAGCTGATGAATTCTTACCGTCGAGTAAACAAATTTTCCTAATCTTTCTGTTCAAGCGCCATCTAC | 0.233
62 | GATGATTGTTCTCCCAGCTGATGAATTGAATGAATCGAGTAAACAAATTTTCCTAATCTTTCTGTTCAAGCGCCATCTAC | 0.294
63 | GATGATTGTTCTCCCAGCTGATGAATTCCTCGCATCGAGTAAACAAATTTTCCTAATCTTTCTGTTCAAGCGCCATCTAC | 0.768
